Data reported in the RNAGym collection of RNA variant scans (doi:10.1093/nar/gkz1192).
Read counts are not given, so values of variants with three or more changes are uncertain.

B1: CPEB3 Ribozyme (parent)
chain: UAACAGGGGGCCACAGCAGAAGCGUUCACGUCGCAGCCCCUGUCAGAUUCUGGUGAAUCUGCGAAUUCUGCUGUAUAUCUC

Variants of: B1
Assay: self-cleavage, relative activity (ratio to wild type); higher = more cleavage; in vitro, sequencing
How it was run: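 Relative activity was defined as the cleaved/total read fraction for a variant divided by the same fraction for the unmutated ribozyme. CPEB3 self-cleaving ribozyme libraries were made by rounds of error-prone PCR, barcoded, and transcribed in vitro with T7 RNA polymerase for 5 hours at 37°C, and cleavage ran through transcription plus a 15 min DNase I step before EDTA. Illumina sequencing of template-switched reverse transcripts gave the reads, and DNA sequencing mapped the barcodes. Averages come from three batches, using variants with at least 5 reads.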

| Variant | self-cleavage |
| --- | --- |
| UAGCAGGGGGCCACAGCAGAAGCGUUCACGUCGCAGCCCCUGUCAGGUUCUGGUGGAUCUGCGAAUUCUGCUGUAUAUCUC [A3G A47G A56G] | 1.12 |
| UAGCAGGGGGUCACAGCAGAAGCGUUCACGUCGCAGCCCCUGUCAGAUUCUGGUGAGUCUGCGAAUUCUGCUGUAUAUCUC [A3G C11U A57G] | 0.23 |
| UAGCAGGGGGCCACAGCAGAAGUGUUCACGUCGCAGCCCCUGUCAGAUUCAGGUGAGUCUGCGAAUUCUGCUGUAUAUCUC [A3G C23U U51A A57G] | 0.36 |
| UAGCAGGGGGCCACAGCAGAAGCGUUCUCGUCGCAGCCCCAGUCAGAUUCUGGUGAAUCUGCGAAUUCUGCUGUAUAUCUC [A3G A28U U41A] | 0.08 |
| UAGCAGGGGGCAACAGCAGAAGCGUUCACGUCGCAGCCCCUGUCAGAUCCUGGUGAAUCUGCGAAUCCUGCUGUAUAUCUC [A3G C12A U49C U67C] | 0.21 |
| UAGCAGGGGGCCACAGCAGAAGCGUUCGCGUCGCGGCCCCUGUCAGAUUCUGGUGAAUCUGCGAAUUCUGCUGUGUAUCUC [A3G A28G A35G A75G] | 1.29 |
| UAGCAGGGGGCCACAGCAGAAGCGUUCGCGUCGCAGCCCCUAUCAGACUCUGGUGAAUCUGCGAAUCCUGGUGAAUAUCUC [A3G A28G G42A U48C U67C C71G U74A] | 0.06 |
| UAGCAGGGGGUCGCAGCAGAAGCGUCCACGUCGCAGCCCCUGUCAGAUUCUGGUGAAUCUACGAAUUCUGCUGUACAUCUC [A3G C11U A13G U26C G61A U76C] | 0.3 |
| UAGCAGGGGGCCACAGCAGAAGCGUUCACGUCGCAGCCCCUGUCAGGUUCUGGUGAAUCUGCGAAUUCUGCUGUGUAUCUC [A3G A47G A75G] | 0.99 |
| UAGCAGGGGGCCACAGUAGAAGCGUUCACGUCGCAGCCCCUGUCAGAUUCUGGUGAAUCUGCGAAUUCUGCUGUAAAUCUC [A3G C17U U76A] | 1.01 |
| UAGCAGGGGGCCACAGCAGAAGCGUUCACGUCGCAGCCCCUGUCAGAUUCUGGUGGAUCUGCGAAUUCUGCUGUAUAUCCC [A3G A56G U80C] | 0.84 |
| UAGUAGGGGGCCACAGCAUGAGCGUCCACGUCGCAGCCCUUGUCAGAUUCUGGUGAAUCUGCGAAUUCUGCUGUAUAUCUC [A3G C4U G19U A20G U26C C40U] | 0.12 |
| UAGCAGGGGGCCACAGCAGAAGGGUUCACGUCGCGGCCCUUGUCAGAUUCUGGCGAAUCUGCGAAUUCUGCGGUAUAUCUC [A3G C23G A35G C40U U54C U72G] | 0.28 |
| UAGCAGGGGGCCACAGCAGAAGCGUUCACGUCGCUGCCCCUGUCGGAUUCUGGUGAAUCAGCGAAUUCUGCUGUAUAUCUC [A3G A35U A45G U60A] | 0.26 |
| UAGCAGGGGGUCACGGCAGAAGCGUUCACGUCGCAGCCCCAGUCAGAUUCUGGUGAAUCUGCGAAUUCUGCCGUAUAUCUC [A3G C11U A15G U41A U72C] | 0.42 |
| UAGCAGGGGGCCACAGCAGAAGCGUUCACGUCGCAGCCCCUGUCAGGUCCUGGUGAAUCUGCGAAUUCUGCUGUAUACCUC [A3G A47G U49C U78C] | 0.55 |
| UAGCAGGGGGCCAGAGCAGAAGCGUUCACGUCGCAGCCCCUGUCAGAUUCUGGUGAAUCUGCGAAUUCUGCUGUCUACCUC [A3G C14G A75C U78C] | 1.04 |

| Variant | self-cleavage |
| --- | --- |
| UAGCAGGGGGCCACAGGAGAAGCGUUCACGUCGCAGCCCCUGUCAGAUUCUGGCGAAUCUGCGAAUUCUGCUGUAUAACUC [A3G C17G U54C U78A] | 0.09 |
| UAGCAGGGGGCCACAGCAGAAGCGUUAACGUAGCAGCCCCUGUCAGAUUCUGGUGAAUCUGCGAAUUCUGCCGUAUAUCUC [A3G C27A C32A U72C] | 0.08 |
| UAGCAGGGGGCCACAGCAGAAGCGUUCACGUCGCGGCCCCUGUCAGGUUCUGGUGAAUCUGCGAAUUCUGCUGUAUAUCUC [A3G A35G A47G] | 1.23 |
| UAGCAGGGGGACACAGCAGAAGCGUUCACGCCGCAGCCCCUGUCUGAUUCUGGCGAAUCUGCGAAUUCUGCUGUAUAUCUC [A3G C11A U31C A45U U54C] | 0.07 |
| UAGCAGGGGGCAACAGCAGAGGCGUUCUCGUCGCAGCCCCUGUCAGAUUCUGGUGAAUCUGCGAAUUCUGCUGUAUAUCUC [A3G C12A A21G A28U] | 0.7 |
| UAGCAGGGGGCCACAGCAGAAGCGUUCACGUCGCAGCCCCUGUCAGAUUCUGGUGUAUCUGCGAAUUCUGCUGUACAUCUC [A3G A56U U76C] | 0.65 |
| UAGCAGGGGGCCACAGGAGAAGCGUUCACGUCGCAGCCCCUGUCAGGUUCUGGUGAACCAGCGUAUUCUGCUGUAUAUCCC [A3G C17G A47G U58C U60A A64U U80C] | 0.54 |
| UAGCAGGGGGCCACAGCAGAAGCGUUCAAGUCGCAGCCCCCGUCAGAUUCUCGUGAAUCUGCGAAUUCUGCCGUAUAUCUC [A3G C29A U41C G52C U72C] | 0.34 |
| UAGCAGGGGGCCACAGCAGAAGCGUUCACGUCGCGGCCCCUGUAAGAUUCUGGUGAAUCUGCGACUUCAGCCGUACAUCUC [A3G A35G C44A A65C U69A U72C U76C] | 0.36 |
| UAGCAGGGGGUCACAGCAGAAGCGUUCACGUCGCAGCCUCUGUCAGAUUCUGGUGAAUCUGCGAAUUCUGCCGUAUAUCUC [A3G C11U C39U U72C] | 0.37 |
| UAGCAGGGGGCCACAGCAGAAGCGUUCUCGUCUCAGCCCCUGUCAGAUUCUGGUGAAUCUGCGAAUUCUGCUGUAUAUCUC [A3G A28U G33U] | 0.31 |
| UAGCAGGGGGCCACAGUAGAAGCGUUCACGUCGCUGCCCCUGUCAGAUUCUGGUGAAUCUGCGAAUUCUGCUGUAUAUCUC [A3G C17U A35U] | 0.63 |
| UAGCAGGGGGCCACAGCAGAAGCGUUCACGUCGCUGCCCCUGUCAGAUUCUGGCGAAUCUGCGAAUUCUGCUGUAUAUCUC [A3G A35U U54C] | 0.46 |
| UAGCAGGGGGCCACAGCAGAAGUGUUCACGUCGCAGCCCCUGACAGAUUCUGGUGGAUCUGCGAAUUCUGCUGUAUAUCUC [A3G C23U U43A A56G] | 0.18 |
| UAGCAGGGGGCCACAGCAGAAGCGUUCGCGUCGCAGCCCCUGUGGGAUUCUGGUGAAUCUGCGAAUUCUGCUGUAUAUCUC [A3G A28G C44G A45G] | 0.23 |
| UAGCAGGGGGCCACAGCAGAAGCGUUAACGUCGGAGCCCCUGUCAGAUUCAGGUGAAUCUGCGAAUUCUGCUGCAUAUCUC [A3G C27A C34G U51A U74C] | 0.45 |
| UAGCAGGGGGCCACAGCAGAAGCGUUCGCGUCGCAGCCCCAGUCAGAUUCUGGUGAAUCUGCGAAUUCUGCUGUAUAUCCC [A3G A28G U41A U80C] | 0.06 |
